Source: PubChem BioAssay AID624417 (National Center for Advancing Translational Sciences (NCATS), 2012)
The whole screen tested about 410,000 compounds, of which about 6,400 (1.6%) were called active. Inconclusive results, whose numbers are uncertain, are shown with a selection of clear calls. Calls follow the shape of the dose curve; as a rule, active = well fitted inhibition curve with a large enough effect; inconclusive = small, poorly fitted or top-dose-only effect; inactive = no such curve, though single readings can be large or run the other way. Potencies of inconclusive entries are left out as doubtful fits.

What follows are compounds tested against Glucagon-like peptide 1 receptor (Homo sapiens) (UniProt P43220) (assay: qHTS of GLP-1 Receptor Inverse Agonists (Inhibition Mode)). Conditions: HEK293 GLP-1R CRE-luciferase, luminescence, 24 h, GLP-1R form is constitutively active; activity change, negative = inhibition: at 38.3 µM (top of the series) unless noted.
Outline: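 Seeding at 200 cells/uL, 12 h culture, 24 hr compound treatment, then luciferase reagent and a luminescence read; cells are HEK293 stably expressing a constitutively active GLP-1R plus cAMP-responsive luciferase.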
% is scaled to controls: 0 for no effect and ±100 for the full control effect; potency is read from the fitted curve at half-maximal effect; tags tell the direction and shape of the fitted curve.
Also: nearly all actives have a fitted effect of over 55% in size.

Sequence of UniProt P43220 (P43220 whole entry, looked up): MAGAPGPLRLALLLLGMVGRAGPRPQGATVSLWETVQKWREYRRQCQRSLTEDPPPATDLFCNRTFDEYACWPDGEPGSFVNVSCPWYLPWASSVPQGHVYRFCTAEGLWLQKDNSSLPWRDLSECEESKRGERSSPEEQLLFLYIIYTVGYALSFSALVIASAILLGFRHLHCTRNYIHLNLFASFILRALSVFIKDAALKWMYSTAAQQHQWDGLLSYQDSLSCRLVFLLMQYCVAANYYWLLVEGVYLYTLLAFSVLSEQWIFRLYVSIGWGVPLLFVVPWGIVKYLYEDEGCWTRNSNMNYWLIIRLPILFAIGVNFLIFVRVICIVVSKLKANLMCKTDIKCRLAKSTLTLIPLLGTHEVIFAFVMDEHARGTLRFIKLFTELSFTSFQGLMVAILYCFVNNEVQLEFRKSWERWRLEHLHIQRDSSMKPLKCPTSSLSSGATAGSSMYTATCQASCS

Structure (SMILES) | Potency | activity change, negative = inhibition
COCc1nnc(NC(=O)c2ccc(S(=O)(=O)N(C)C3CCCCC3)cc2)o1 | inconclusive [inhibitor, single point] | 
O=C(O)c1cccc(S(=O)(=O)NNc2ccccc2C(F)(F)F)c1 | inconclusive [inhibitor, single point] | 
COc1ccc(NC(=S)N2CCN(C/C=C/c3ccccc3)CC2)cc1 | inconclusive [inhibitor, partial curve, poor fit] | 
Cc1ccc(-c2nc(-c3cc4c([nH]c3=O)CC(C)(C)CC4=O)sc2C)cc1 |  | inactive: 4.06%
O=C(Cn1cc(SCc2ccc(C(F)(F)F)cc2)c2ccccc21)N1CCOCC1 | inconclusive [inhibitor, single point] | 
CN(NS(=O)(=O)c1ccc([N+](=O)[O-])cc1)c1ccccc1 | inconclusive [inhibitor, single point] | 
NC(=O)C1CCN(C(=O)c2cc(-c3ccc(Cl)s3)nc3ccccc23)CC1 | inconclusive [inhibitor, single point] | 
COc1ccc(CNC(=O)Cn2cncn2)cc1OC | inconclusive [inhibitor, single point] | 
Cc1ccc(C2=NNC(=Nc3ccc(F)cc3)SC2)cc1 | inconclusive [inhibitor, single point] | 
O=C1N[C@@H](Cc2c[nH]c3ccccc23)COC(=O)[C@@H](Cc2ccc(F)cc2)C/C=C\C[C@H]1CC(=O)N(CCO)Cc1ccccc1 | active: 8.91 µM | 
CCCCCCCC(=O)OCC(=O)[C@@]1(O)CC[C@H]2[C@@H]3CCC4=CC(=O)CC[C@]4(C)[C@H]3[C@@H](O)C[C@@]21C | inconclusive [inhibitor, full curve, poor fit] | 
CCn1cnc2c1c(=O)n(Cc1cccc(Br)c1)c(=O)n2Cc1ccccc1 | inconclusive [inhibitor, partial curve, poor fit] | 
CCO[C@H]1OC(C(=O)Nc2ccccc2)=C[C@@H](c2cn(C(C)=O)c3ccccc23)[C@@H]1CCCO | inconclusive [inhibitor, single point] | 
COc1ccc2nc(N3CCN(C(=O)C4COc5ccccc5O4)CC3)sc2c1 (stereo not given) | inconclusive [inhibitor, single point] | 
CCCCC[C@H]1CN(C2CCCCC2)C(=O)[C@@H]1CC(=O)NCc1ccccc1 | inconclusive [inhibitor, partial curve, poor fit] | 
COc1ccccc1CNS(=O)(=O)c1ccc2c(c1)NC(=O)C(C)C(=O)N2 (stereo not given) |  | inactive: 3.3%
CN(C)CC#CCC(O)(c1ccccc1)c1ccccc1 | inconclusive [inhibitor, partial curve, poor fit] | 
Cc1c(OCc2ccc(C(=O)O)o2)ccc2c3c(c(=O)oc12)CCC3 |  | inactive: 1.19%
CN(C)S(=O)(=O)c1cccc(NC(=O)CC23CC4CC(CC(C4)C2)C3)c1 | inconclusive [inhibitor, partial curve, poor fit] | 
CC(=O)Nc1ccc(/C=C/c2nc(-c3ccccc3O)n(-c3ccccc3)n2)cc1 |  | inactive: -11.6%

Structure (SMILES) | Potency | activity change, negative = inhibition
OCCC1CN(Cc2cc(F)ccc2F)CCN1CCCc1ccccc1 (stereo not given) | inconclusive [inhibitor, single point] | 
CC1CCCCN1CC(=O)Nc1ccc(Oc2ccccc2)cc1 (stereo not given) | inconclusive [inhibitor, partial curve, poor fit] | 
CC(=O)c1ccc(NC(=O)CN2C(=O)CCc3ccccc32)cc1 |  | inactive: 6.93%
Cc1ccc(Cn2cc(CCC(=O)NC3CCC(C)CC3)c3ccccc32)cc1 (stereo not given) | inconclusive [inhibitor, single point] | 
CC(=O)Nc1cccc(-c2cc(NC(C)=O)c3ncc(-c4cccc(C(F)(F)F)c4)n3c2)c1 | inconclusive [inhibitor, single point] | 
CC1CCN(S(=O)(=O)c2ccc(N=NC3=C(O)CC(C)(C)CC3=O)cc2)CC1 | inconclusive [inhibitor, full curve] | 
CC(=O)c1ccc(NC(=O)Nc2ccc(NS(=O)(=O)c3ccc(C)cc3)cc2)cc1 | inconclusive [inhibitor, partial curve, poor fit] | 
CC1COc2ccccc2N1S(=O)(=O)c1ccc(Cl)cc1 (stereo not given) | inconclusive [inhibitor, partial curve, poor fit] | 
C=CC(=O)N1C/C(=C/c2ccc(F)cc2)C(=O)/C(=C\c2ccc(F)cc2)C1 | inconclusive [inhibitor, full curve, poor fit] | 
CCOc1cc(CNC(CC)CO)ccc1OCC(=O)Nc1cccc(C(F)(F)F)c1 (stereo not given) | inconclusive [inhibitor, partial curve] | 
CCOC(=O)c1cccc(NC(=O)NCc2cccn2Cc2ccccc2)c1 |  | inactive: -27.6%
COc1cc2c(=O)n(Cc3ccccc3Cl)c(=O)n(CC(=O)Nc3ccc(C)c(C)c3)c2cc1OC |  | inactive: 0.98%
CCOC(=O)Cc1csc(NC(=O)COc2ccc(N(C)S(=O)(=O)c3cccs3)cc2)n1 | inconclusive [inhibitor, single point] | 
COc1ccc2nc(Nc3nc(CSc4nc5ccccc5[nH]4)cc(=O)[nH]3)nc(C)c2c1 | inconclusive [inhibitor, full curve, poor fit] | 
N/C(Cc1ccc(Cl)cc1Cl)=N\OC(=O)Cc1ccc(Cl)cc1 | inconclusive [inhibitor, single point] | 
COc1ccc(NS(=O)(=O)c2cccc(NC(=O)c3ccc(Cl)nc3)c2)cc1 | inconclusive [inhibitor, partial curve, poor fit] | 
Cc1ccc(C(C)(C)C)cc1S(=O)(=O)Nc1ncnc2sccc12 | inconclusive [inhibitor, single point] | 
CC(=O)Nc1ccc(SC[C@H](C)CN2CC[C@H](C(C)(C)C)CCC2=O)cc1 | active: 10 µM | 
Cc1cccc(C)c1-n1nnnc1-c1nc2cc3ccccc3cc2[nH]c1=O | inconclusive [inhibitor, full curve, poor fit] | 
O=C(COC(=O)c1cc(-c2cccs2)nn1-c1ccccc1)Nc1cccc([N+](=O)[O-])c1 | inconclusive [inhibitor, single point] | 

Structure (SMILES) | Potency | activity change, negative = inhibition
CCCC(=O)NC(=S)Nc1ccccc1OC | inconclusive [inhibitor, partial curve, poor fit] | 
COCC1CCN(C(=O)c2ccc3oc(CCCc4ccccc4)nc3c2)C1 (stereo not given) | inconclusive [inhibitor, single point] | 
Cc1ccc2c(c1)C(Cc1ccccc1F)C(=O)N2 (stereo not given) |  | inactive: 3.43%
CC1CC(C)C[N+](=C2C=C(N3CCCC3)CC(C)(C)C2)C1 (stereo not given) | inconclusive [inhibitor, full curve] | 
CCn1cc(CCC(=O)NCc2ccc(C)cc2)c2ccccc21 | inconclusive [inhibitor, single point] | 
COc1nc(SC)nc(Cl)c1Cc1ccc(OC(C)C)cc1 | inconclusive [inhibitor, single point] | 
COc1ccc(CCNC(=O)C(CC(C)C)N2Cc3ccccc3C2=O)c(OC)c1OC (stereo not given) |  | inactive: -5.36%
C#CC(C)(CC)NC(=O)Cn1nnc(-c2cccc(C(F)(F)F)c2)n1 (stereo not given) | inconclusive [inhibitor, single point] | 
COc1ccccc1C(=O)COC(=O)c1cc(S(=O)(=O)N2CCCCC2)ccc1N1CCOCC1 | inconclusive [inhibitor, partial curve, poor fit] | 
CCN(CC)S(=O)(=O)c1ccc(N2CCCC2)c(NC(=O)c2nn(C)c(=O)c3ccccc23)c1 | inconclusive [inhibitor, single point] | 
COc1ccc(Cn2c(=O)[nH]c3cc(C(=O)NCCCN4CCCC4)ccc3c2=O)cc1 | inconclusive [inhibitor, single point] | 
O=C(NCc1ccc2c(c1)OCO2)c1cc(-c2ccncc2)nc2ccccc12 | inconclusive [inhibitor, single point] | 
N#Cc1c(C(F)(F)F)cc(-c2cccc(Cl)c2)[nH]c1=O | inconclusive [inhibitor, partial curve, poor fit] | 
COc1ccc(-c2cn[nH]c2-c2ccc(OCc3ccccc3)cc2O)cc1OC | inconclusive [inhibitor, single point] | 
CCCCCOC(=O)c1[nH]c2c(c1C)C(=O)C(C(=O)OC)C(C)C2 (stereo not given) | inconclusive [inhibitor, single point] | 
CCCCC[C@@H](C)N1C[C@H](COCc2ccccc2)Oc2cc(N3CC[C@@H](N(C)C)C3)ccc2S1(=O)=O | inconclusive [inhibitor, partial curve, poor fit] | 
COC(=O)C(Cc1c[nH]c2ccccc12)NC(=O)c1cccc(S(=O)(=O)N2CCCCC2)c1 (stereo not given) | inconclusive [inhibitor, partial curve] | 
O=C1CN(C(=O)COc2ccc(Cl)cc2)C(c2ccccc2)c2cc(Br)ccc2N1 (stereo not given) | inconclusive [inhibitor, single point] | 
COc1ccc(Cc2nnc(SCC(=O)N(c3ccccc3)C(C)C)n(N)c2=O)cc1 | inconclusive [inhibitor, partial curve] | 
CC(=O)Nc1cccc(-c2cnc(NC(C)=O)cn2)c1 | inconclusive [inhibitor, single point] | 
